According to PubChem BioAssay AID686971 (National Center for Advancing Translational Sciences (NCATS), 2013):
The whole screen tested about 360,000 compounds, of which about 7,500 (2.1%) were called active. The inconclusive results got no clear call from the source; some entries with a clear call stand among them for comparison. Calls come from the whole dose curve; as a rule, active = well fitted cell-killing curve with a large enough effect; inconclusive = small, poorly fitted or top-dose-only effect, or effect the other way, or another doubt; inactive = no such curve, though single readings can be large or run the other way. No potency is given beside an inconclusive call; the fits are too rough.

Experiment: qHTS for induction of synthetic lethality in tumor cells producing 2HG: qHTS for the HT-1080-IDH1KD cell line;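 for activity, negative = toxicity: 0% = DMSO wells and -100% = cell-free medium wells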
Settings: HT-1080 IDH1 knockdown viability, ATP luminescence, 48 h; activity, negative = toxicity: at 46.1 µM (top of the series) unless noted
Procedure, shortened: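 Luminescent ATP read-out (CellTiter-Glo, 10 min at room temperature) after 48 h compound exposure at 37 °C gave viability of IDH1-knockdown HT-1080 cells. Activity was normalised to DMSO and cell-free wells, then fitted as concentration-response curves.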
Potency is the fitted concentration of half-maximal effect; tags give direction and shape of the fitted curve.

Row | Structure (SMILES) | activity, negative = toxicity | Potency
1 | COCCn1c(N)c(Sc2ccc(C)cc2)c(=O)[nH]c1=O | inactive: 15.3% | –
2 | CC(C)Oc1ccc(C(CC(=O)O)Cc2ccccc2)cc1 (stereo unspecified) | inactive: 1.92% | –
3 | O=C(NCc1ccncc1)c1ccc(Br)cc1 | inactive: 5.06% | –
4 | COc1ccc2c(c1OC)C(=O)N(c1ccc(C)cc1)C2=O | – | inconclusive [rising, partial curve, poor fit]
5 | COc1ccc(OC)c(-c2cnc(OC(C)(C)C)nc2OC(C)(C)C)c1 | – | active: 13 µM
6 | c1ccc(CNc2nc(NCc3ccccc3)c3sccc3n2)cc1 | – | inconclusive [cytotoxic, single point]
7 | O=C(CN1CCN(Cc2ccccc2)CC1)Nc1cccc(S(=O)(=O)N2CCCCCC2)c1 | – | inconclusive [cytotoxic, single point]
8 | CN1CCc2nc(SCc3ccc(Cl)cc3)c(C#N)c(-c3cccs3)c2C1 | – | inconclusive [cytotoxic, single point]
9 | CCOc1ccccc1-c1nn2c(Cc3ccccc3)nnc2s1 | – | inconclusive [cytotoxic, partial curve, poor fit]
10 | Cc1cccc(-c2nnc(NC(=O)c3ccc(Cl)cc3)o2)c1 | – | inconclusive [cytotoxic, single point]
11 | C=CC[n+]1c(-c2ccc(C)cc2)csc1Nc1ccc(NC(C)=O)cc1 | – | inconclusive [cytotoxic, single point]
12 | O=C(NCc1ccccn1)c1cc(-c2ccccc2)nc2ccccc12 | inactive: 20.1% | –
13 | CC(=NNC(=S)N1CC2CCC(CC2)C1)c1ccncn1 | – | inconclusive [cytotoxic, partial curve, poor fit]
14 | CCC1=NN(C(=O)c2cccc(Br)c2)C(O)(c2ccc(Br)cc2)C1 (stereo unspecified) | – | active: 18.4 µM
15 | CC(C)C[C@@H](COCc1ccc(Cl)cc1)N1CCN(C(=O)c2ccc(Cl)cc2Cl)CCC1=O | – | inconclusive [cytotoxic, single point]
16 | CN(C)CCOCCOc1ccc(Cl)cc1C(C)(C)C | – | inconclusive [cytotoxic, single point]
17 | Cc1ccc(/C=N/NC(=O)c2cc(-c3ccccc3)nc3ccccc23)o1 | – | inconclusive [cytotoxic, full curve]
18 | O=C(NC1CCCCC1)C1CCCN(S(=O)(=O)c2cccc3cccnc23)C1 (stereo unspecified) | inactive: 9.43% | –
19 | O=C1C=C(N2CCOCC2)c2ccccc2C1=O | – | active: 4.61 µM
20 | CCCNS(=O)(=O)c1cc2c(cc1Br)CCN2C(=O)CC | inactive: 21.9% | –
21 | CC1CCCCN1C(=O)c1ccc(NC(=O)c2ccccc2Cl)cc1 (stereo unspecified) | inactive: 6% | –
22 | CC(Oc1ccc(Cl)cc1Cl)C(=O)NC1=NN(c2ccccc2)C(=O)C1 (stereo unspecified) | – | inconclusive [cytotoxic, single point]
23 | CC1CCN(CCCNC(=O)CN2C(=O)CSc3ccc(S(=O)(=O)N4CCC(C)CC4)cc32)CC1 | inactive: -4.13% | –

Row | Structure (SMILES) | activity, negative = toxicity | Potency
24 | O=C(CSc1ccc(-c2ccccn2)nn1)c1ccccc1 | – | inconclusive [cytotoxic, single point]
25 | CCOc1cccc(/C=C/c2ccc3cccc(O)c3n2)c1O | – | inconclusive [cytotoxic, single point]
26 | O=C(N/N=C\c1ccc([N+](=O)[O-])o1)c1cncc(Br)c1 | – | active: 16.4 µM
27 | Cc1cc(N2CCN(C)CC2)nc2ccc(NC(=S)N3CCN(c4ccc(F)cc4)CC3)cc12 | – | inconclusive [cytotoxic, single point]
28 | COC(=O)/C=C1\C(=O)N(c2nc3ccccc3s2)C(=S)N1c1ccc(F)cc1 | – | inconclusive [cytotoxic, single point]
29 | Nc1nc(CCl)nc(Nc2ccccc2)n1 | – | inconclusive [cytotoxic, single point]
30 | COC(=O)C[C@H]1C=C[C@@H](C(C(=O)OC)C(=O)OC)CN1C(C)=O | inactive: 12.5% | –
31 | CCN(C[C@H]1N[C@@](C)(C(=O)OC)[C@H]2C(=O)N(Cc3ccccc3)C(=O)[C@@H]12)C(=O)Nc1ccc(OC)cc1 | inactive: -3.09% | –
32 | O=C(C(=Cc1ccc(O)cc1)c1ccccc1)c1ccccc1 | – | inconclusive [cytotoxic, single point]
33 | O=C(N/N=C/c1ccc(-c2ccc([N+](=O)[O-])cc2)o1)c1cccnc1 | – | inconclusive [cytotoxic, single point]
34 | CCOC(=O)C1CCCN(C(=O)c2sc3nc(-c4ccc(F)cc4)cn3c2C)C1 (stereo unspecified) | inactive: -9.3% | –
35 | CCN1/C(=C\C(=S)Nc2ccccc2)Sc2ccccc21 | – | active: 9.2 µM
36 | O=C(NC(c1ccc(F)cc1)c1ccc2ccccc2n1)C1CCN(Cc2cccc(C(F)(F)F)c2)CC1 (stereo unspecified) | – | active: 5.8 µM
37 | O=C(NCCCn1ccnc1)c1ccccc1NS(=O)(=O)c1ccc(F)c(F)c1 | – | inconclusive [cytotoxic, partial curve]
38 | O=C(NCc1ccccc1)C(CCc1ccccc1)n1c(=O)c(-c2ccccc2)nc2ccccc21 (stereo unspecified) | – | inconclusive [cytotoxic, single point]
39 | CC1CCc2sc(C(=O)OCC(=O)NCc3ccc(F)cc3)cc2C1 (stereo unspecified) | – | active: 20.6 µM
40 | O=C(CC1C(=O)Nc2ccccc2N1CC(=O)N1CCCC1)Nc1ccc(Br)cc1 (stereo unspecified) | inactive: -2.67% | –
41 | Oc1ccc(Br)cc1/C=N/n1cnc2ccccc21 | – | inconclusive [cytotoxic, single point]
42 | COc1ccc(NS(=O)(=O)c2ccc3c(c2)Cc2ccccc2-3)cn1 | – | inconclusive [cytotoxic, single point]
43 | Cc1cc(C(=O)CN2c3cccc4cccc(c34)S2(=O)=O)c(C)n1C | – | active: 14.6 µM
44 | COc1cc2c3nnc(-c4ccccc4)c-3cn(Cc3ccccc3F)c2cc1OC | – | inconclusive [cytotoxic, single point]
45 | Cc1cc(NC(=O)CSc2nnc(-c3ccc4c(c3)OCCO4)o2)no1 | – | inconclusive [cytotoxic, single point]
46 | O=C(Nc1ccc(N2CCOCC2)cc1Cl)C1CCN(C(=O)OCc2ccccc2)CC1 | – | inconclusive [cytotoxic, single point]
